# Experimental data: paper PMC11363325, “A Novel Prodrug Strategy Based on Reversibly Degradable Guanidine Imides for High Oral Bioavailability and Prolonged Pharmacokinetics of Broad-Spectrum Anti-influenza Agents” (ACS Central Science, 2024)
# Key:
# [1] = system: A/Hong Kong/8/1968 (HK; H3N2); test: microbe, parasite or virus in culture; details: Influenza A virus, H3N2, MDCK
# B/Lee/1940 (Lee) = test: microbe, parasite or virus in culture; details: Influenza B virus, MDCK
Compound,CC50 at 3 days (in vitro),EC50 [1],EC50 (B/Lee/1940 (Lee))
"NC(=O)c1ncn([C@@H]2O[C@H](CO)[C@@H](O)[C@H]2O)n1 [RBV, Ribavirin, reference compound]",> 100 µM,21.8 ± 1.1 µM,
CCC(CC)O[C@@H]1C=C(C(=O)O)C[C@H](N=C(N2C(=O)C3CCC(C)CC3C2=O)N2C(=O)C3CCC(C)CC3C2=O)[C@H]1NC(C)=O (stereo partly drawn) [OSC-GCDI(CM)],,,8.36 ± 1 µM
